Source: article PMC4336329 (PLoS ONE, 2015)
Screen size: about 310,000 compounds; about 14,000 (4.5%) showed an effect of 50% or more. The effect is printed as a negative number. Some of the results follow.

Target: human ether-à-go-go-related gene (hERG) potassium channel (human, UniProt Q12809)
Experiment: primary screen, population patch clamp on CHO cells stably expressing hERG
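Note: peak tail current of the secondary pulse compared with the same well before compound.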

human ether-à-go-go-related gene (hERG) potassium channel, sequence (Q12809 whole entry, looked up): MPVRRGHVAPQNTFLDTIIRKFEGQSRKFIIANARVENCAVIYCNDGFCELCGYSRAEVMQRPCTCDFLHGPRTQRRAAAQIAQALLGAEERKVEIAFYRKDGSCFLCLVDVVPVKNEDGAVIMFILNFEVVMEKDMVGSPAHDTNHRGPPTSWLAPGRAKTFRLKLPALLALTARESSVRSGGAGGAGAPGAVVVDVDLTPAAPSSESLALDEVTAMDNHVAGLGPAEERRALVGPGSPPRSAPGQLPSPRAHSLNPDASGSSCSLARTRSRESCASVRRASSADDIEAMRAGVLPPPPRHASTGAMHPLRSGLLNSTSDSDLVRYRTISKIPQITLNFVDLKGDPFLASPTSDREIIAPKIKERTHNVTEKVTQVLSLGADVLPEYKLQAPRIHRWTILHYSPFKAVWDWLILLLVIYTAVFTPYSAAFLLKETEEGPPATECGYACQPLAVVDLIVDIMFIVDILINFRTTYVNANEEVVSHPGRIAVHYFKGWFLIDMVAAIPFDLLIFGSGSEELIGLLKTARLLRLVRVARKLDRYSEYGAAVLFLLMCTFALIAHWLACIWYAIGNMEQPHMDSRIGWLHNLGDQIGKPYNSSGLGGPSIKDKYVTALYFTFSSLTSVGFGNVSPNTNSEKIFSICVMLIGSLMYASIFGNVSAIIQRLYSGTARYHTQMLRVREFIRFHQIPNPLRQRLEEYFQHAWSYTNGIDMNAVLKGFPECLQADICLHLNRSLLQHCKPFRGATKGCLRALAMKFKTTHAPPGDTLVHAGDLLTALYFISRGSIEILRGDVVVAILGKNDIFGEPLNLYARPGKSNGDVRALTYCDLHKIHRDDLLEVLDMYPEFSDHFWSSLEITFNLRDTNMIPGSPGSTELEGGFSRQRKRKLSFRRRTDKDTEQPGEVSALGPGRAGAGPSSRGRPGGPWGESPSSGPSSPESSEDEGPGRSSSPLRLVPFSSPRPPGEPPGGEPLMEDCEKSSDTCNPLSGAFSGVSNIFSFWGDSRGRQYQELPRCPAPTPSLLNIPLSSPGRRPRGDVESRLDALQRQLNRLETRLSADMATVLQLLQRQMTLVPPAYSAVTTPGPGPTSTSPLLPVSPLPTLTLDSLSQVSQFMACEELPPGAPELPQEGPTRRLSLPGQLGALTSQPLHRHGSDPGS

| SMILES | hERG current change (%, negative = inhibition) at 10uM [%] |
| --- | --- |
| O=C1CCC[C@@H]2[C@H]3CCC[N+]4([O-])CCC[C@@H](CN12)[C@@H]34 (stereo partly drawn) | 17.2 |
| CCO[C@H]1OC(C(=O)NCc2nc3ccccc3[nH]2)=C[C@@H](C2CC2)[C@@H]1CCCO | -0.846 |
| Cn1nnnc1SCC(=O)Nc1nn(-c2ccccc2)nc1C(N)=O | -13.8 |
| O=C(c1cccc(S(=O)(=O)Nc2ccc(F)cc2)c1)N1CCCC1 | -3.1 |
| COc1cc(OC)cc(C(=O)Nc2ncc3c(n2)CC(C)CC3=O)c1 (stereo not drawn) | -9.12 |
| O/N=C/c1ccnc(SCc2ccc(Cl)cc2)n1 | 10.5 |
| Cc1c(-c2cccc(NC(=O)c3cccs3)c2)nc2ncccn12 | -26.9 |
| O=C(NCc1ccccc1F)Nc1ccc([N+](=O)[O-])cc1 | 15.9 |
| O=C(COC(=O)c1ccc2c(c1)C(=O)N(Cc1ccncc1)C2=O)Nc1ccccc1[N+](=O)[O-] | -39.6 |
| O=C(Nc1ccc2ccccc2c1)NC1CCS(=O)(=O)C1 (stereo not drawn) | 6.88 |
| O=C(COc1ccc(Cl)cc1Cl)N/N=C/c1ccccn1 | -21.4 |
| O=C(CCCCCn1c(=S)[nH]c2ccccc2c1=O)N1CCOCC1 | 0.941 |
| NC(=S)N=Nc1c(O)[nH]c2cc(F)c(F)cc12 | -0.539 |
| CC(NC(=O)c1ccccc1)C(=O)N/N=C/c1ccco1 (stereo not drawn) | 18.8 |
| CCc1ccc(/C=C2/Sc3ccccc3N(CC(=O)NCCCN3CCOCC3)C2=O)cc1 | -41.3 |
| NC(=O)c1ccc(NC(=O)COC(=O)c2ccc3c(c2)OCCO3)cc1 | -4.09 |
| COC(=O)c1sc(S(=O)(=O)NCCCN(C)C)c(C(=O)OC)c1C | 4.45 |
| O=C(N/C(=C\c1cccnc1)C(=O)N1CCOCC1)c1cccc(Br)c1 | 6.87 |
| O=C(CNCc1ccccc1)NCCCN1CCCC1=O.O=C(O)C(=O)O | 14.4 |
| CCN(CC)C(=O)Cc1ccccc1 | 13 |
| O=C(O)c1ccc(S(=O)(=O)/N=C2\C=C(Nc3ccccc3F)C(=O)c3ccccc32)cc1 | -4.61 |
| COc1ccc(C)cc1S(=O)(=O)Nc1cc(Cl)ccc1Cl | 7.53 |

| SMILES | hERG current change (%, negative = inhibition) at 10uM [%] |
| --- | --- |
| CC(C)(C)c1cc(NC(=O)CCSc2nnc3ccccn23)cc(C(C)(C)C)c1 | 2.45 |
| CCOc1cc(NS(=O)(=O)CC)c(OCC)cc1NC(=O)c1ccco1 | -17.6 |
| CCOCCCn1c(=NC(C)=O)c(C#N)cc2c(=O)n3cccc(C)c3nc21 | -41.8 |
| CC(C)c1ccc(C2(C)NC(=O)N(CC(=O)NC3CCCC(C)C3C)C2=O)cc1 (stereo not drawn) | -7.2 |
| Cc1nnc2c(N3CCN(CCO)CC3)nc3ccccc3n12 | 1.27 |
| Cc1ccc(N2CC(C(=O)Nc3ccc4c(c3)OCO4)CC2=O)cc1C (stereo not drawn) | 14.1 |
| Cc1c(C)c2cccnc2c2ncccc12 | -1.81 |
| COc1ccc(OC)c(C2C3=C(N=C4SCC(=O)N42)c2ccccc2CC3)c1 (stereo not drawn) | 2.19 |
| O=C(O)c1cccnc1Sc1ncnc2sc3c(c12)CCC3 | 8.49 |
| O=C(N/N=C\c1ccc(F)cc1)c1cc(OCC(F)(F)F)ccc1OCC(F)(F)F | -21 |
| Cc1ccc(CNCC(O)(c2ccccc2)c2ccc(F)cc2)cc1 (stereo not drawn) | -45.6 |
| O=C1CCCc2c1[nH]c1ccccc21 | 17.5 |
| N/C(=N\OC(=O)Oc1ccccc1)c1ccc(Br)cc1 | 6.65 |
| COC(=O)c1c(N2C(=O)[C@H]3[C@@H](C2=O)[C@]2(C(=O)Nc4c2ccc(C)c4C)N2CCC[C@@H]32)sc(C)c1C | 15.4 |
| O=C1CCCN2N=C(SCC(=O)N3N=C(c4ccc(Br)cc4)CC3c3ccc(F)cc3)SC2=N1 (stereo not drawn) | 1.94 |
| CC(C)COc1cccc(C(=O)NC2(C)CCS(=O)(=O)C2)c1 (stereo not drawn) | -0.429 |
| O=C(CC1NC(=O)NC1=O)Nc1ccc(Cl)cc1 (stereo not drawn) | 29.4 |
| O=C(N/N=C/c1ccc(OC(F)F)cc1)c1ccc(Br)cc1 | 2.81 |
| CCCCN1C(=O)C(=O)NC[C@@H]1C(C)CC (stereo partly drawn) | 20.1 |
| COc1ccc(CN2CCN(Cc3ccc(C(F)(F)F)cc3)CC2)cc1.O=C(O)C(=O)O | -65.7 |
| O=C(COc1ccc2c3c(c(=O)oc2c1)CCCC3)N[C@@H](Cc1ccccc1)C(=O)O | -4.88 |
| NC(=O)CC(NC(=O)c1ccccc1)c1ccc(NCc2ccccc2)c([N+](=O)[O-])c1 (stereo not drawn) | 17 |

| SMILES | hERG current change (%, negative = inhibition) at 10uM [%] |
| --- | --- |
| CCN(Cc1ccccc1)C(=O)c1ccc(NC(=O)c2ccc(OC)cc2)cc1 | 4.93 |
| Nc1cc(=O)[nH]c(SCC(=O)c2ccc(F)cc2)n1 | 9.03 |
| Cc1cc(C)c(NC(=O)CNC(=O)CN(C)Cc2ccc(Br)s2)c(C)c1 | -4.26 |
| CCN(CC)CCOC(=O)c1ccc(N/C=C(/C#N)c2nc(-c3cccc(OC)c3)cs2)cc1 | 9.72 |
| CC(=C1C(=O)c2ccccc2C1=O)N1CCN(c2ccccn2)CC1 | -28.3 |
| CN(CC(=O)Nc1ncn[nH]1)S(=O)(=O)c1ccc(Cl)cc1 | -6.56 |
| O=C(Cn1cccc1C(=O)c1ccccc1)NCc1ccco1 | 5.43 |
| Cn1cccc1/C=C1\SC(=Nc2cccc(O)c2)NC1=O | -13.5 |
| Cc1nc(Nc2ccccc2)sc1C(=O)Nc1ccccc1 | 7.99 |
| NC(=O)C1CN(S(=O)(=O)c2ccc(Cl)cc2F)c2ccccc2O1 (stereo not drawn) | 15.5 |
| CC(=O)N1c2ccc(S(=O)(=O)N3CCCC3)cc2CC1C(=O)NCc1ccc(OC(C)C)cc1 (stereo not drawn) | -14.6 |
| CCOC(=O)C1=C(C)NC(=O)NC1c1ccc(C)o1 (stereo not drawn) | 9.83 |
| CC1Cc2ccccc2N1C(=O)Cc1cccs1 (stereo not drawn) | 6.94 |
| COC(=O)C1CCN(C(=O)/C=C/c2ccccc2)CC1 | 4.21 |
| CC(C)C(NC(=O)c1ccc2c(c1)OCO2)C(=O)N/N=C/c1cccs1 (stereo not drawn) | 15.8 |
| CCOC(=O)c1nn(-c2ccc3ccccc3c2)cc1O | 1.92 |
| COCCn1c(Cc2ccccc2)nnc1SCC(=O)Nc1cc(C)on1 | -5.36 |
| O=C(Nc1ncc(S(=O)(=O)c2ccc([N+](=O)[O-])cc2)s1)c1ccccc1F | 14.9 |
| Cc1ccc(-c2csc(NC(=O)C[n+]3cc(-c4ccccc4)n4c3CCC4)n2)cc1.[Cl-] | -57 |
| CC(=O)OCC(CCn1cnc2cnc(N)nc21)COC(C)=O | 10.5 |
| CCOC(=O)c1cnn(-c2ccc(F)cc2)c1N | 0.583 |
| CNCCCOc1cccc(OC(C)C)c1.O=C(O)C(=O)O | 4.63 |

| SMILES | hERG current change (%, negative = inhibition) at 10uM [%] |
| --- | --- |
| O=C(N/N=C/c1ccc2c(c1)OCO2)c1cc(-c2ccc(F)cc2)nc2ccccc12 | 20 |
| O=C(N/N=C/c1ccco1)c1ccc(NC(=O)c2ccccc2Cl)cc1 | 13.1 |
| CSc1ccc(/C=C(/NC(=O)c2ccco2)C(=O)N2CCOCC2)cc1 | -3.69 |
| CCc1ccc(NC(=O)CCNS(=O)(=O)c2cccs2)cc1 | 7.74 |
| CCN(CC)CC(C(=O)N(CC)CC)P(=O)(c1ccccc1)c1ccccc1 (stereo not drawn) | 14.2 |
| O=C(CSc1ccc(-c2ccccn2)nn1)NC1CCCC1 | -4.02 |
| CC(=O)Nc1ccc(C(=O)OCC(=O)NC(=O)NC2CCCCC2)cc1 | -0.454 |
| Cc1c(C(=O)N2CCc3ccccc3C2)oc2ccc(Br)cc12 | -4.02 |
| Cc1noc(C)c1COC(=O)CCc1nc2ccccc2c(=O)[nH]1 | 6.21 |
| C/C(=N\Nc1nc2ccccc2c(=O)n1O)c1ccco1 | 17.9 |
| CCc1ccc2c(Cl)c(C(=O)N/N=C/c3c[nH]c4ccccc34)sc2c1 | 2.9 |
| COc1ccc(/C=C/C(=O)OCC(=O)N2CC(=O)Nc3ccccc32)cc1S(=O)(=O)N1CCOCC1 | -2.6 |
| c1ccc(CCc2ccccc2-c2nc(-c3cccnc3)no2)cc1 | 2.1 |
| COCCCNS(=O)(=O)c1ccc2[nH]c3c(c2c1)CCCCC3 | -5.24 |
| COc1ccc(S(=O)(=O)NNC(=O)Cc2csc(C)n2)cc1[N+](=O)[O-] | 8.31 |
| COc1ccc(OC)c(/C=C/C(=O)OCC(=O)NCc2ccco2)c1 | 2.2 |
| COc1ccccc1N1CCN(CC(=O)N2CCCC2)CC1.O=C(O)C(=O)O | 8.21 |
| COc1ccc(S(=O)(=O)N2CCC(C(=O)NCC3CCCO3)CC2)cc1 (stereo not drawn) | -10.8 |
| C=CCNC(=O)c1ccccc1SCc1c(C)noc1C | 18.8 |
| CCN(CC)C(=O)Cn1cc(S(=O)(=O)CC(=O)NCc2ccccc2)c2ccccc21 | -11.6 |
| Cc1ccc(OCC(O)Cn2c(N3CCCCC3)nc3c2c(=O)[nH]c(=O)n3C)cc1 (stereo not drawn) | 9.46 |
